The whole screen tested about 310,000 compounds, of which about 2,200 (0.71%) showed an effect of 50% or more. The effect is printed as a negative number. The list shows a part of the results.
These compounds were tested against human ether-à-go-go-related gene (hERG) potassium channel (human, UniProt Q12809) (assay: primary screen, population patch clamp on CHO cells stably expressing hERG).
Chain of human ether-à-go-go-related gene (hERG) potassium channel (Q12809 whole entry, looked up): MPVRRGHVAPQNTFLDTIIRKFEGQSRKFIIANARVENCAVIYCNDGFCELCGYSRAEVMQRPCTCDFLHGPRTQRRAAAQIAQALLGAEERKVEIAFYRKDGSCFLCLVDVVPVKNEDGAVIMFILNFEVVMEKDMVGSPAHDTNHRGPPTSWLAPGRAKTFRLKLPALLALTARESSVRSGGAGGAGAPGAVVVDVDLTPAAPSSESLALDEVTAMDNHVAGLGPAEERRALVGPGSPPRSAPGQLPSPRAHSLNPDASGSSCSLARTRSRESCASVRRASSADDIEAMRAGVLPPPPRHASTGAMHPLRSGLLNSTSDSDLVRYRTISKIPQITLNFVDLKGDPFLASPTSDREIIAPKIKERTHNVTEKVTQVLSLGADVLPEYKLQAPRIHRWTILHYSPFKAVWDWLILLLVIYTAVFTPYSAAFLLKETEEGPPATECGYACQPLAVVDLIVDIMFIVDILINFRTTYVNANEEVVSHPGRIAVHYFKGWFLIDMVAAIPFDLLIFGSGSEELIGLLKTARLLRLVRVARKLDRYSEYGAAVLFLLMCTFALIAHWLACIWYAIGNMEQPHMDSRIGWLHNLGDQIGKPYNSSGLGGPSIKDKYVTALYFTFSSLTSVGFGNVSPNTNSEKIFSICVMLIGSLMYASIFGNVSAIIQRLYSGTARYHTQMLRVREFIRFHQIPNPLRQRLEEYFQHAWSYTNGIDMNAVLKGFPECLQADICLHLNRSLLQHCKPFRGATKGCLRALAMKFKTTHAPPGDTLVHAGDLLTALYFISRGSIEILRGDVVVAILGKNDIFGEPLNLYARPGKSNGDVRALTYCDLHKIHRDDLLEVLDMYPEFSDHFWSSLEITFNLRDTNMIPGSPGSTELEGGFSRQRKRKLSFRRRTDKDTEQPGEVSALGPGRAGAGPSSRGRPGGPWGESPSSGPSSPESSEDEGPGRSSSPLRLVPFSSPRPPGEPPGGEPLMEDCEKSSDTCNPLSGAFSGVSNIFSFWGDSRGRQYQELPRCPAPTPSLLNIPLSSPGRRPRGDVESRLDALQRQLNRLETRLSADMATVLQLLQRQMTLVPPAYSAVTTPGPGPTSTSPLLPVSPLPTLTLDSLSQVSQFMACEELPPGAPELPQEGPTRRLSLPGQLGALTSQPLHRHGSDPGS

Row | SMILES | hERG current change (%, negative = inhibition) at 1uM [%]
1 | CC(C)CCN1CCN(C2CCN(c3ccccc3)CC2)CC1CCO (stereo not drawn) | -5.89
2 | CCCCCN(C(=O)CCC(=O)OCCOc1cccc(C)c1)c1c(N)n(CCCC)c(=O)[nH]c1=O | 3.85
3 | COc1cccc(CN2CCNC(=O)C2CC(=O)NC2CCCCC2)c1OC (stereo not drawn) | 12.4
4 | Cc1cc(Oc2nc3c(C)cccn3c(=O)c2/C=C(\C#N)S(=O)(=O)c2ccccc2)ccc1Cl | 3.25
5 | Cc1ccc2c(c1)cc(CN(Cc1cccnc1)C(=O)c1ccccc1)c1nnnn12 | -28.4
6 | CC(C)N(C(=O)CS(=O)(=O)c1ccc(Cl)c(Cl)c1)C(C)C | 4.89
7 | CN(C)C(=S)NC(=O)C(c1ccccc1)c1ccccc1 | 3.66
8 | CCCCOc1ccccc1NC(=O)Cn1c(-c2nonc2N)nc2ccccc21 | 7.21
9 | CCOC(=O)c1sc(/S(C)=N\S(=O)(=O)c2cccc(Cl)c2)c2c1CCC=C2 (stereo not drawn) | 2.62
10 | CCNc1nc(OC)nc(Oc2ccc(C(=O)OC)cc2)n1 | 13.2
11 | CCN(CC)S(=O)(=O)c1ccc(OC)c(NC(=O)c2cccc([N+](=O)[O-])c2C)c1 | 0.67
12 | CC(=O)N1CCC(N(C(=O)Nc2ccc(F)cc2)C2CCCC2)CC1 | 14.3
13 | O=S(=O)(c1ccc2ccccc2c1)N(CC1CO1)c1ccccc1 (stereo not drawn) | 8.85
14 | COc1ccc(NC(=O)c2cc(S(=O)(=O)N3CCOCC3)cn2C)c(OC)c1 | 9.62
15 | COc1ccc(C(=O)Nc2ccc(Cn3ccnc3)cc2)cc1OC | 12.2
16 | COC(=O)c1ccc(C)c(NC(=O)COC(=O)C2CC3CCCC(C2)C3=O)c1 (stereo not drawn) | 2.4
17 | CC(=O)N(C(C)=O)n1c(/C=C/c2cccc([N+](=O)[O-])c2)nc2ccccc2c1=O | 10.9
18 | Cl.O=C(c1ccco1)N1CCN(CCCCOc2cccc3ccccc23)CC1 | 6.14
19 | COc1ccccc1OCC(=O)N1CCCC(N2CCN(c3ccc(F)cc3)CC2)C1 (stereo not drawn) | 4.57
20 | N#Cc1c(Cl)nc(Cl)c2c1CCN(Cc1ccccc1)C2 | 7.79
21 | COc1ccc(Br)cc1/C=N/NC(=O)C(c1ccncc1)N1CCOCC1 (stereo not drawn) | 15.7
22 | O=C1CCN(S(=O)(=O)c2ccc(Br)cc2)CCN1 | 9.41
23 | Cc1ccc(NC(=O)O/N=C/c2ccc(F)cc2)cc1 | 8.72

Row | SMILES | hERG current change (%, negative = inhibition) at 1uM [%]
24 | CC(C)Nc1ccc(Nc2ccnc3cc4ccccc4cc23)cc1 | -1.76
25 | COC(=O)Cn1c(N2CCCC2)nc2c1c(=O)n(C)c(=O)n2C | 8.15
26 | Cc1ccc(S(=O)(=O)N(C)C)cc1NC(=S)N1CCc2ccccc21 | 10.3
27 | Cc1cc(NCCCOC(C)C)n2c(nc3ccccc32)c1C#N | 5.2
28 | CSc1ccccc1C(=O)OCC(=O)N1CCCC1=O | -4.4
29 | CN(C)CCNC(=S)Nc1cccc(Cl)c1 | 3.05
30 | Cc1ccc(NC(=S)N(CCN2CCCCC2)Cc2ccco2)cc1C | -6.21
31 | CNC(=S)N/N=C/c1ccccc1OCC(=O)O | 6.65
32 | O=c1[nH]cnc2scc(-c3ccc(-c4ccccc4)cc3)c12 | 19.7
33 | O=C(CSc1nnc2ccccn12)Nc1cccc(S(=O)(=O)N2CCOCC2)c1 | 2.93
34 | CCCOc1ccc(S(=O)(=O)Nc2ccccn2)c2ccccc12 | 14.6
35 | COC(=O)/C(=C/c1ccco1)NC(=O)c1ccco1 | 9.62
36 | O=C(Nc1ncc(Br)s1)C1CCCN1S(=O)(=O)c1cccc2cccnc12 (stereo not drawn) | -1.15
37 | CC1CN(c2ccc([N+](=O)[O-])c(N3CCCCC3)c2)CCN1 (stereo not drawn) | 8.07
38 | COc1ccc(OC)c2nc3c(cc12)CCC3 | 17.8
39 | CCc1ccc(N(CC(=O)NC2CCCCC2)S(=O)(=O)c2c(C)noc2C)cc1 | 15.4
40 | COc1ccccc1OCCCC(=O)NCc1ccco1 | 14.3
41 | CC(C)c1nnc(NC(=O)CCC(=O)N2CCN(c3cccc(Cl)c3)CC2)s1 | -0.97
42 | CC12CN(NC(=O)c3ccc(Cl)cc3)C3(C#N)CC1CCC23C (stereo not drawn) | 16.9
43 | Cc1ccnc(NC(=O)c2ccc(Cl)c(NC(=O)c3ccccc3C)c2)c1 | 10.8
44 | c1ccc2c(c1)[nH]c1c(N3CCN(C4CCCCC4)CC3)ncnc12 | -0.461
45 | COC(=O)c1ccccc1NC(=O)CCCn1nc(C)c2c(C)n(-c3ccccc3)nc2c1=O | 9.75
46 | Cc1ccc2oc(-c3ccccc3)c(C(=O)O)c(=O)c2c1 | 9.14

Row | SMILES | hERG current change (%, negative = inhibition) at 1uM [%]
47 | CCN1CCN(C(=O)/C=C/c2ccc(C)o2)CC1 | 10.5
48 | Cc1ccc(NC(=O)CSC(N)=O)cc1Cl | 7.65
49 | Cc1c(C(=O)N2CCOCC2)sc(NC(=O)c2ccc([N+](=O)[O-])cc2)c1C#N | 15.8
50 | COc1ccc(C)cc1NS(=O)(=O)c1ccc(Br)s1 | 1.38
51 | Cc1ccc(N2C(=O)C(CC(=O)Nc3cccc(F)c3)N(CCc3ccncc3)C2=O)cc1 (stereo not drawn) | -7.51
52 | COc1ccc(CNC(=O)CCCOc2cc(=O)n(C)c3ccccc23)cc1 | 11.2
53 | CC1CC2(CCCCC2)N2C(=O)C(=O)c3cccc1c32 (stereo not drawn) | 3.32
54 | Cc1cc(Cn2nc(C(=O)NCc3cccc(C(F)(F)F)c3)cc2-c2ccccc2)on1 | -2.81
55 | CC(=O)c1ccc(NC(=S)N2CCC(O)CC2)cc1 | 26.4
56 | O=S(=O)(NC(=NC1CCCCC1)c1ccccc1F)c1ccccc1 | 11.5
57 | C[C@@H]1CC[C@H](O)/C=C/C(=O)O[C@H](C)CC[C@H](O)/C=C/C(=O)O1 | 13.1
58 | Cc1ccc2cccc(NC3OC(=O)c4ccccc43)c2n1 (stereo not drawn) | 22.2
59 | CCCCCCC(=O)N/N=C1\CCCc2ccccc21 | 4.95
60 | Cc1cc(C)n2nc(C(=O)OCC(=O)c3ccccc3Cl)nc2n1 | 5.63
61 | COc1ccc(NC2CCCN(C(=O)c3cc(C)nc4cc(F)ccc34)C2)cc1 (stereo not drawn) | 22.8
62 | CC(C)COc1cccc(C(=O)NC(=S)NCc2cccnc2)c1 | 4.19
63 | Fc1ccc(N2N=C(c3cccs3)CC2c2ccccc2)cc1 (stereo not drawn) | 14.1
64 | Cc1cc2cc(C=O)c(Cl)nc2cc1C | 13.6
65 | CCOc1ccc(Cc2c(Cl)nc(SC)nc2N(C)C)cc1 | 0.539
66 | O=S(=O)(NC1c2cccc3cccc(c23)C1Sc1ncccn1)c1ccc(Cl)cc1 (stereo not drawn) | 4.24
67 | Cc1ccc(-c2c(C#N)c(N)n3c(nc4ccccc43)c2C#N)cc1 | 7.2
68 | O=C(CCn1c(=O)oc2ccccc21)NCCN1CCOCC1 | 11.9
69 | Cc1ccc(Cn2c(C)c3cnn(CC(=O)NCc4ccccn4)c(=O)c3c2C)cc1 | 12.4

Row | SMILES | hERG current change (%, negative = inhibition) at 1uM [%]
70 | CC(=O)c1ccc(OCc2cc(C(=O)N3CCN(C4CCCC4)C(=O)C3)no2)cc1 | 24.1
71 | COc1ccccc1Nc1ncnc2c1cnn2-c1cccc(C)c1 | 0.0902
72 | COc1cc(Cl)ccc1OCc1cc(C(=O)NCC(C)c2ccccc2)no1 (stereo not drawn) | 11.5
73 | CCc1ccc(NCc2ccc(OC)c(Cn3ccnc3)c2)cc1 | 9.63
74 | COc1ccc(CNS(=O)(=O)NCc2ccc(OC)c(OC)c2)cc1OC | -1.48
75 | NC(=O)C(=O)NN=C1C2CC3CC(C2)CC1C3 | 11.9
76 | COc1cccc(C(=O)Nc2ccc(NC(=O)C3CCCCC3C(=O)O)cc2)c1 (stereo not drawn) | 12.6
77 | O=[N+]([O-])c1cc([As](=O)(O)O)ccc1O | 14.9
78 | NC(=O)CN1CCN(c2nc(-c3ccc(F)cc3)cs2)CC1 | 4.03
79 | Cc1ccc(C)c(S(=O)(=O)N2CCN(C(=O)Cn3cnc4c3c(=O)n(C)c(=O)n4C)CC2)c1 | 1.06
80 | Cc1cc([N+](=O)[O-])ccc1NC(=O)CCC(=O)N1CCCC1 | 7.82
81 | CCOc1ccc(NC(=O)CC2C(=O)N(c3ccccc3)C(=O)N2Cc2ccccn2)cc1 (stereo not drawn) | -5.68
82 | CCOC(=O)N1CCN(C(=O)CN(c2ccc(C)cc2)S(=O)(=O)c2c(C)noc2C)CC1 | 6.27
83 | COc1ccc(CC(=O)NNC(=O)c2cc(C)oc2C)cc1OC | 5.16
84 | CCOc1ccccc1CNC(=O)C1CCN(c2nnc(C)c3c(C)n(-c4ccc(C)cc4)nc23)CC1 | -5.49
85 | C=C(C)Cn1c(CCCNC(=O)C(C)(C)C)nc2ccccc21 | -17.9
86 | CN(C)S(=O)(=O)c1cccc(NC(=O)c2cc([N+](=O)[O-])ccc2N2CCCCC2)c1 | -8.27
87 | CC(C)(C)NNC(=S)Nc1cccc(C(F)(F)F)c1 | 12
88 | CCCn1c(SCC(=O)NCc2ccc(F)cc2)n[nH]c1=O | 14
89 | CC(=O)c1c(COC(=O)c2ccco2)nc2ccccc2[n+]1[O-] | 4.26
90 | Cc1ccsc1C(=O)OCC(=O)NCCNC(=O)COC(=O)c1sccc1C | -1.41

— PMC4336329 (PLoS ONE, 2015)
